# In the supplement of paper PMC8728848:
# The list shows a part of the results.
# B1: Pwp2 (Candida glabrata) (protein)
# chain: MGSSHHHHHHSSGLVPRGSHMASKNPVELNNVCTFPNDYGRIPGFTVLVGRLGLLISASDYKELLRYPGAFLIATQDTMTTSPNFELTGFPFFTGLYGLTVFPLDLLVELRGYFVPPNSGQYTFTLSDSDDAAIIFLGNPSAFPCGDLQNWPKPSEEDITVTDHLFPSRTLYLIEGVAYPMRIAYYNGIGAGRLNAAFIDPSGTRHTNWEGYIWQYDPCSTCTYS
# Key:
# Assay in all cases: glycan array binding signal (z-score within array); higher = stronger binding
# Conditions in all cases: glycan notation: IUPAC condensed, linker removed
# Gal(a1-3)Gal(b1-3)GlcNAc = molecular target: Gal(a1-3)Gal(b1-3)GlcNAc
# Summary of the method: (§1)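 Glycan array data came from 3228 arrays in the Consortium for Functional Glycomics database, and only arrays with an available protein sequence were kept. Glycan names were put into IUPAC-condensed notation, and columns mapping to the same glycan were averaged. The binding signal is a within-array Z-score, averaged across arrays of one protein sequence run at different concentrations or buffers and across linkers. A negative Z-score can be read as non-binding.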
# [1] = molecular target: Gal(a1-3)Gal(b1-3)GlcNAc(b1-2)Man
# Summary of the method: as §1
# [2] = molecular target: Gal(a1-3)Gal(b1-3)GlcNAc(b1-2)Man(a1-3)[Gal(a1-3)Gal(b1-3)GlcNAc(b1-2)Man(a1-6)]Man(b1-4)GlcNAc(b1-4)GlcNAc
# Summary of the method: as §1
# [3] = molecular target: Gal(a1-3)Gal(b1-3)GlcNAc(b1-3)GalNAc
# Summary of the method: as §1
# [4] = molecular target: Gal(a1-3)Gal(b1-3)GlcNAc(b1-6)GalNAc
# Summary of the method: as §1
# [5] = molecular target: Gal(a1-3)Gal(b1-3)[Fuc(a1-4)]GlcNAc(b1-2)Man(a1-3)[Gal(a1-3)Gal(b1-3)[Fuc(a1-4)]GlcNAc(b1-2)Man(a1-6)]Man(b1-4)GlcNAc(b1-4)GlcNAc
# Summary of the method: as §1
# Gal(a1-3)Gal(b1-4)Glc = molecular target: Gal(a1-3)Gal(b1-4)Glc
# Summary of the method: as §1
# Gal(a1-3)Gal(b1-4)GlcNAc = molecular target: Gal(a1-3)Gal(b1-4)GlcNAc
# Summary of the method: as §1
# [6] = molecular target: Gal(a1-3)Gal(b1-4)GlcNAc(b1-2)Man
# Summary of the method: as §1
# [7] = molecular target: Gal(a1-3)Gal(b1-4)GlcNAc(b1-2)Man(a1-3)[Gal(a1-3)Gal(b1-4)GlcNAc(b1-2)Man(a1-6)]Man(b1-4)GlcNAc(b1-4)GlcNAc
# Summary of the method: as §1
# [8] = molecular target: Gal(a1-3)Gal(b1-4)GlcNAc(b1-3)GalNAc
# Summary of the method: as §1
# [9] = molecular target: Gal(a1-3)Gal(b1-4)GlcNAc(b1-6)GalNAc
# Summary of the method: as §1
# [10] = molecular target: Gal(a1-3)Gal(b1-4)[Fuc(a1-3)]GlcNAc
# Summary of the method: as §1
# [11] = molecular target: Gal(a1-3)Gal(b1-4)[Fuc(a1-3)]GlcNAc(b1-2)Man(a1-3)[Gal(a1-3)Gal(b1-4)[Fuc(a1-3)]GlcNAc(b1-2)Man(a1-6)]Man(b1-4)GlcNAc(b1-4)GlcNAc
# Summary of the method: as §1
# Gal(a1-3)GalNAc = molecular target: Gal(a1-3)GalNAc
# Summary of the method: as §1
# [12] = molecular target: Gal(a1-3)[Gal(a1-4)]Gal(b1-4)GlcNAc
# Summary of the method: as §1
# [13] = molecular target: Gal(a1-4)Gal(b1-3)GlcNAc(b1-2)Man(a1-3)[Gal(a1-4)Gal(b1-3)GlcNAc(b1-2)Man(a1-6)]Man(b1-4)GlcNAc(b1-4)GlcNAc
# Summary of the method: as §1
# Gal(a1-4)Gal(b1-4)Glc = molecular target: Gal(a1-4)Gal(b1-4)Glc
# Summary of the method: as §1
# Gal(a1-4)Gal(b1-4)GlcNAc = molecular target: Gal(a1-4)Gal(b1-4)GlcNAc
# Summary of the method: as §1
# [14] = molecular target: Gal(a1-4)Gal(b1-4)GlcNAc(b1-2)Man(a1-3)[Gal(a1-4)Gal(b1-4)GlcNAc(b1-2)Man(a1-6)]Man(b1-4)GlcNAc(b1-4)GlcNAc
# Summary of the method: as §1
# [15] = molecular target: Gal(a1-4)Gal(b1-4)GlcNAc(b1-3)Gal(b1-4)Glc
# Summary of the method: as §1
# Gal(a1-4)GlcNAc = molecular target: Gal(a1-4)GlcNAc
# Summary of the method: as §1
# Gal(a1-6)Glc = molecular target: Gal(a1-6)Glc
# Summary of the method: as §1
# Gal(b1-2)Gal = molecular target: Gal(b1-2)Gal
# Summary of the method: as §1
# Gal(b1-3)Gal = molecular target: Gal(b1-3)Gal
# Summary of the method: as §1
# Gal(b1-3)Gal(b1-4)GlcNAc = molecular target: Gal(b1-3)Gal(b1-4)GlcNAc
# Summary of the method: as §1
# Gal(b1-3)GalNAc = molecular target: Gal(b1-3)GalNAc
# Summary of the method: as §1
# [16] = molecular target: Gal(b1-3)GalNAc(a1-3)[Fuc(a1-2)]Gal(b1-4)Glc
# Summary of the method: as §1
# [17] = molecular target: Gal(b1-3)GalNAc(a1-3)[Fuc(a1-2)]Gal(b1-4)GlcNAc
# Summary of the method: as §1
# Gal(b1-3)GalNAc(b1-3)Gal = molecular target: Gal(b1-3)GalNAc(b1-3)Gal
# Summary of the method: as §1
# [18] = molecular target: Gal(b1-3)GalNAc(b1-3)Gal(a1-4)Gal(b1-4)Glc
# Summary of the method: as §1
# [19] = molecular target: Gal(b1-3)GalNAc(b1-4)Gal(b1-4)Glc
# Summary of the method: as §1
# [20] = molecular target: Gal(b1-3)GalNAc(b1-4)[Neu5Ac(a2-3)]Gal(b1-4)Glc
# Summary of the method: as §1
# Gal(b1-3)GlcNAc = molecular target: Gal(b1-3)GlcNAc
# Summary of the method: as §1
# [21] = molecular target: Gal(b1-3)GlcNAc(a1-3)Gal(b1-4)GlcNAc
# Summary of the method: as §1
# [22] = molecular target: Gal(b1-3)GlcNAc(a1-6)Gal(b1-4)GlcNAc
# Summary of the method: as §1
# Gal(b1-3)GlcNAc(b1-2)Man = molecular target: Gal(b1-3)GlcNAc(b1-2)Man
# Summary of the method: as §1
# [23] = molecular target: Gal(b1-3)GlcNAc(b1-2)Man(a1-3)[Gal(b1-3)GlcNAc(b1-2)Man(a1-6)]Man(b1-4)GlcNAc(b1-4)GlcNAc
# Summary of the method: as §1
binder,measurement,setting,value
B1,glycan array binding signal (z-score),Gal(a1-3)Gal(b1-3)GlcNAc,-0.455
same,glycan array binding signal (z-score),[1],-0.046
same,glycan array binding signal (z-score),[2],-0.151
same,glycan array binding signal (z-score),[3],-0.036
same,glycan array binding signal (z-score),[4],-0.526
same,glycan array binding signal (z-score),[5],0.743
same,glycan array binding signal (z-score),Gal(a1-3)Gal(b1-4)Glc,-0.584
same,glycan array binding signal (z-score),Gal(a1-3)Gal(b1-4)GlcNAc,-0.484
same,glycan array binding signal (z-score),[6],-0.146
same,glycan array binding signal (z-score),[7],0.804
same,glycan array binding signal (z-score),[8],0.233
same,glycan array binding signal (z-score),[9],-0.281
same,glycan array binding signal (z-score),[10],-0.464
same,glycan array binding signal (z-score),[11],0.233
same,glycan array binding signal (z-score),Gal(a1-3)GalNAc,0.011
same,glycan array binding signal (z-score),[12],-0.437
same,glycan array binding signal (z-score),[13],-0.651
same,glycan array binding signal (z-score),Gal(a1-4)Gal(b1-4)Glc,-0.251
same,glycan array binding signal (z-score),Gal(a1-4)Gal(b1-4)GlcNAc,-0.562
same,glycan array binding signal (z-score),[14],0.195
same,glycan array binding signal (z-score),[15],1.23
same,glycan array binding signal (z-score),Gal(a1-4)GlcNAc,-0.288
same,glycan array binding signal (z-score),Gal(a1-6)Glc,-1.98
same,glycan array binding signal (z-score),Gal(b1-2)Gal,-0.438
same,glycan array binding signal (z-score),Gal(b1-3)Gal,-0.327
same,glycan array binding signal (z-score),Gal(b1-3)Gal(b1-4)GlcNAc,-1.08
same,glycan array binding signal (z-score),Gal(b1-3)GalNAc,-0.544
same,glycan array binding signal (z-score),[16],0.087
same,glycan array binding signal (z-score),[17],-0.583
same,glycan array binding signal (z-score),Gal(b1-3)GalNAc(b1-3)Gal,-0.339
same,glycan array binding signal (z-score),[18],-0.332
same,glycan array binding signal (z-score),[19],-0.352
same,glycan array binding signal (z-score),[20],-0.401
same,glycan array binding signal (z-score),Gal(b1-3)GlcNAc,-0.338
same,glycan array binding signal (z-score),[21],0.16
same,glycan array binding signal (z-score),[22],-0.506
same,glycan array binding signal (z-score),Gal(b1-3)GlcNAc(b1-2)Man,-0.2
same,glycan array binding signal (z-score),[23],-0.223
